# Reference: the supplement of paper PMC8728848
# Some of the results follow.
# B1: OGAN (protein)
# chain: MVQKESQATLEERESELSSNPAASAGASLEPPAAPAPGEDNPAGAGGAAVAGAAGGARRFLCGVVEGFYGRPWVMEQRKELFRRLQKWELNTYLYAPKDDYKHRMFWREMYSVEEAEQLMTLISAAREYEIEFIYAISPGLDITFSNPKEVSTLKRKLDQVSQFGCRSFALLFNDIDHNMCAADKEVFSSFAHAQVSITNEIYQYLGEPETFLFCPTEYCGTFCYPNVSQSPYLRTVGEKLLPGIEVLWTGPKVVSKEIPVESIEEVSKIIKRAPVIWDNIHANDYDQKRLFLGPYKGRSTELIPRLKGVLTNPNCEFEANYVAIHTLATWYKSNMNGVRKDVVMTDSEDSTVSIQIKLENEGSDEDIETDVLYSPQMALKLALTEWLQEFGVPHQY
# What was measured:
# Experiment in all cases: glycan array binding signal (z-score within array); higher = stronger binding
# Conditions in all cases: glycan notation: IUPAC condensed, linker removed
# [1] = target: GalNAc(b1-4)GlcNAc(b1-2)Man
# Procedure, shortened: (§1)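 From the Consortium for Functional Glycomics database, 3228 arrays were curated, keeping only those whose protein sequence was available. Binding is given as a within-array Z-score averaged across arrays sharing a protein sequence and across linkers. Negative Z-scores can be read as non-binding.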
# [2] = target: GalNAc(b1-4)GlcNAc(b1-2)Man(a1-3)[GalNAc(b1-4)GlcNAc(b1-2)Man(a1-6)]Man(b1-4)GlcNAc(b1-4)GlcNAc
# Procedure, shortened: as §1
# [3] = target: GalNAc(b1-4)GlcNAc(b1-3)GalNAc(b1-4)GlcNAc
# Procedure, shortened: as §1
# GalNAc(b1-4)GlcNAc6S = target: GalNAc(b1-4)GlcNAc6S
# Procedure, shortened: as §1
# GalNAc(b1-6)GalNAc = target: GalNAc(b1-6)GalNAc
# Procedure, shortened: as §1
# GalNAc3S(b1-4)GlcNAc = target: GalNAc3S(b1-4)GlcNAc
# Procedure, shortened: as §1
# GalNAc3S(b1-4)GlcNAc3S = target: GalNAc3S(b1-4)GlcNAc3S
# Procedure, shortened: as §1
# [4] = target: GalNAc3S(b1-4)[Fuc(a1-3)]GlcNAc
# Procedure, shortened: as §1
# GalNAc4S6S(b1-4)GlcNAc = target: GalNAc4S6S(b1-4)GlcNAc
# Procedure, shortened: as §1
# GalNAc6S(b1-4)GlcNAc = target: GalNAc6S(b1-4)GlcNAc
# Procedure, shortened: as §1
# Glc(a1-4)Glc = target: Glc(a1-4)Glc
# Procedure, shortened: as §1
# [5] = target: Glc(a1-4)Glc(a1-4)Glc(a1-4)Glc
# Procedure, shortened: as §1
# Glc(a1-6)Glc(a1-6)Glc = target: Glc(a1-6)Glc(a1-6)Glc
# Procedure, shortened: as §1
# [6] = target: Glc(a1-6)Glc(a1-6)Glc(a1-6)Glc
# Procedure, shortened: as §1
# Glc(b1-4)Glc = target: Glc(b1-4)Glc
# Procedure, shortened: as §1
# Glc(b1-6)Glc = target: Glc(b1-6)Glc
# Procedure, shortened: as §1
# GlcA(b1-3)Gal = target: GlcA(b1-3)Gal
# Procedure, shortened: as §1
# GlcA(b1-3)GlcNAc = target: GlcA(b1-3)GlcNAc
# Procedure, shortened: as §1
# GlcA(b1-6)Gal = target: GlcA(b1-6)Gal
# Procedure, shortened: as §1
# [7] = target: GlcA3S(b1-3)Gal(b1-4)GlcNAc(b1-2)Man
# Procedure, shortened: as §1
# [8] = target: GlcA3S(b1-3)Gal(b1-4)GlcNAc(b1-3)Gal(b1-4)Glc
# Procedure, shortened: as §1
# [9] = target: GlcNAc(a1-3)Gal(b1-4)GlcNAc
# Procedure, shortened: as §1
# [10] = target: GlcNAc(a1-4)Gal(b1-3)GlcNAc
# Procedure, shortened: as §1
# [11] = target: GlcNAc(a1-4)Gal(b1-4)GalNAc
# Procedure, shortened: as §1
# [12] = target: GlcNAc(a1-4)Gal(b1-4)GlcNAc
# Procedure, shortened: as §1
# [13] = target: GlcNAc(a1-4)Gal(b1-4)GlcNAc(b1-3)Gal(b1-4)Glc
# Procedure, shortened: as §1
# [14] = target: GlcNAc(a1-4)Gal(b1-4)GlcNAc(b1-3)Gal(b1-4)GlcNAc
# Procedure, shortened: as §1
# [15] = target: GlcNAc(a1-4)Gal(b1-4)GlcNAc(b1-3)Gal(b1-4)GlcNAc(b1-3)Gal(b1-4)GlcNAc
# Procedure, shortened: as §1
# [16] = target: GlcNAc(a1-4)Gal(b1-4)GlcNAc(b1-3)Gal(b1-4)[Fuc(a1-3)]GlcNAc(b1-3)Gal(b1-4)[Fuc(a1-3)]GlcNAc
# Procedure, shortened: as §1
# [17] = target: GlcNAc(a1-6)Gal(b1-4)GlcNAc
# Procedure, shortened: as §1
# [18] = target: GlcNAc(b1-2)Gal(b1-3)GalNAc
# Procedure, shortened: as §1
# [19] = target: GlcNAc(b1-2)Man(a1-3)[GlcNAc(b1-2)Man(a1-6)]Man(b1-4)GlcNAc(b1-4)GlcNAc
# Procedure, shortened: as §1
# [20] = target: GlcNAc(b1-2)Man(a1-3)[GlcNAc(b1-2)Man(a1-6)]Man(b1-4)GlcNAc(b1-4)[Fuc(a1-6)]GlcNAc
# Procedure, shortened: as §1
# [21] = target: GlcNAc(b1-2)Man(a1-3)[GlcNAc(b1-4)][GlcNAc(b1-2)Man(a1-6)]Man(b1-4)GlcNAc(b1-4)GlcNAc
# Procedure, shortened: as §1
# [22] = target: GlcNAc(b1-2)Man(a1-3)[GlcNAc(b1-4)][GlcNAc(b1-2)Man(a1-6)]Man(b1-4)GlcNAc(b1-4)[Fuc(a1-6)]GlcNAc
# Procedure, shortened: as §1
# [23] = target: GlcNAc(b1-2)[GlcNAc(b1-4)]Man(a1-3)[GlcNAc(b1-2)Man(a1-6)]Man(b1-4)GlcNAc(b1-4)GlcNAc
# Procedure, shortened: as §1
# [24] = target: GlcNAc(b1-2)[GlcNAc(b1-4)]Man(a1-3)[GlcNAc(b1-4)][GlcNAc(b1-2)Man(a1-6)]Man(b1-4)GlcNAc(b1-4)GlcNAc
# Procedure, shortened: as §1
binder,measurement,setting,value
B1,glycan array binding signal (z-score),[1],-0.049
same,glycan array binding signal (z-score),[2],-0.042
same,glycan array binding signal (z-score),[3],-0.024
same,glycan array binding signal (z-score),GalNAc(b1-4)GlcNAc6S,-0.033
same,glycan array binding signal (z-score),GalNAc(b1-6)GalNAc,-0.027
same,glycan array binding signal (z-score),GalNAc3S(b1-4)GlcNAc,0.005
same,glycan array binding signal (z-score),GalNAc3S(b1-4)GlcNAc3S,-0.067
same,glycan array binding signal (z-score),[4],-0.082
same,glycan array binding signal (z-score),GalNAc4S6S(b1-4)GlcNAc,-0.006
same,glycan array binding signal (z-score),GalNAc6S(b1-4)GlcNAc,-0.056
same,glycan array binding signal (z-score),Glc(a1-4)Glc,-0.053
same,glycan array binding signal (z-score),[5],0.06
same,glycan array binding signal (z-score),Glc(a1-6)Glc(a1-6)Glc,-0.103
same,glycan array binding signal (z-score),[6],-0.01
same,glycan array binding signal (z-score),Glc(b1-4)Glc,-0.078
same,glycan array binding signal (z-score),Glc(b1-6)Glc,-0.093
same,glycan array binding signal (z-score),GlcA(b1-3)Gal,-0.079
same,glycan array binding signal (z-score),GlcA(b1-3)GlcNAc,-0.063
same,glycan array binding signal (z-score),GlcA(b1-6)Gal,-0.1
same,glycan array binding signal (z-score),[7],-0.022
same,glycan array binding signal (z-score),[8],-0.105
same,glycan array binding signal (z-score),[9],-0.068
same,glycan array binding signal (z-score),[10],-0.075
same,glycan array binding signal (z-score),[11],-0.053
same,glycan array binding signal (z-score),[12],-0.069
same,glycan array binding signal (z-score),[13],-0.079
same,glycan array binding signal (z-score),[14],-0.033
same,glycan array binding signal (z-score),[15],-0.058
same,glycan array binding signal (z-score),[16],-0.057
same,glycan array binding signal (z-score),[17],-0.092
same,glycan array binding signal (z-score),[18],-0.088
same,glycan array binding signal (z-score),[19],-0.037
same,glycan array binding signal (z-score),[20],-0.046
same,glycan array binding signal (z-score),[21],-0.056
same,glycan array binding signal (z-score),[22],-0.074
same,glycan array binding signal (z-score),[23],-0.013
same,glycan array binding signal (z-score),[24],-0.08
